In all, about 410,000 compounds went through this assay and about 1,200 (0.29%) were called active. Inconclusive means that the source gave no clear call. Such entries were picked first, then a sample of the others. Calls come from the whole dose curve; as a rule, active = well fitted activation curve with a large enough effect; inconclusive = small, poorly fitted or top-dose-only effect; inactive = flat fitted curve, though single readings scatter. Where the call is inconclusive, the potency comes from a doubtful curve fit.
Experiment: qHTS of Nrf2 Activators; note: nearly all actives have a fitted effect of over 65% in size; for activation: % of control where 0% means no effect
Conditions: AREc32 ARE-luciferase reporter (MCF7-derived line), luminescence, 24 h; activation: at 46.1 µM (top of the series)
Procedure, shortened: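 AREc32_Fluc, 1000 cells/well, OPTI-MEM + 5% FBS, o/n 37 deg C 5% CO2; 23 nL cpd by pin tool, 24 hr; Steady-Glo 30 min RT, luminescence.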
Potency is the fitted concentration of half-maximal effect; tags give direction and shape of the fitted curve.

Potency, active:
Cc1cc(C)n2nc(-c3ccc(Br)cc3)cc2n1 2.24 µM
Brc1ccc(-c2nc3ccccc3s2)s1 11.2 µM
O=C(N/N=C/C(Br)=C/c1ccccc1)c1cccs1 10 µM
O=C(Nc1c(O)c2ccccc2[nH]c1=O)c1ccco1 10 µM
O=C(NCC1CCCO1)c1cc(-c2ccco2)nc2ccccc12 (stereo unspecified) 11.2 µM
COC(=O)c1sc(-c2cccs2)cc1NC(=O)/C=C/C(=O)O 15.8 µM
c1ccc2c(c1)nnn2-c1ncnc2sccc12 3.98 µM

Potency, inconclusive:
CC1CCCCN1C(=O)c1cc2c(=O)n3ccccc3nc2s1 (stereo unspecified) 22.4 µM [activator, single point]
COc1cccc(-c2nn(C)c3sc(C(=O)NCc4ccco4)cc23)c1 1.78 µM [activator, full curve, poor fit]
CN(C)/C=C1\Cc2ccccc2C1=O 31.6 µM [activator, single point]
O=C(NCc1ccccn1)c1cc(Br)ccc1Cl 10 µM [activator, partial curve]
CN1C/C(=C/c2cccs2)C(=O)/C(=C\c2cccs2)C1 22.4 µM [activator, partial curve, poor fit]
CC(SC#N)C(=O)C12CC3CC(CC(C3)C1)C2 (stereo unspecified) 20 µM [activator, single point]
CCc1cc2c(Sc3nc4ccccc4s3)ncnc2s1 15.8 µM [activator, partial curve, poor fit]
CC(=O)NC(CSC(CC(=O)c1ccco1)c1ccc(C)cc1)C(=O)O (stereo unspecified) 31.6 µM [activator, single point]
C=C1CCC[C@]2(C)C[C@H]3OC(=O)C(CN(Cc4ccc(OC)c(OC)c4)CC(C)O)[C@H]3CC12 (stereo partly specified) 3.16 µM [activator, single point]
CC(C)c1[nH]nc2c1C(C(C)C)C(C#N)=C(N)O2 (stereo unspecified) 31.6 µM [activator, single point]
CC12CCC(/C(=C/NNc3ccc([N+](=O)[O-])cc3[N+](=O)[O-])C1=O)C2(C)C (stereo unspecified) 15.8 µM [activator, single point]
CSc1ccccc1NC(=O)COC(=O)/C=C/c1ccco1 1 µM [activator, full curve, poor fit]
c1ccc(-c2nc(NCc3ccco3)c3oc4ccccc4c3n2)cc1 12.6 µM [activator, single point]
COc1ccc2ccc(O)c(CN3CCN(S(=O)(=O)c4cccc(C(F)(F)F)c4)CC3)c2c1 22.4 µM [activator, single point]
O=C(c1ccc([N+](=O)[O-])o1)N1CCN(c2nc3c(Cl)cccc3s2)CC1 7.94 µM [activator, partial curve, poor fit]
O=[N+]([O-])c1cccc(/C=N/Nc2ccccn2)c1 2.51 µM [activator, full curve, poor fit]
CC(C)(C)n1cnnc1Sc1ccc([N+](=O)[O-])cn1 14.1 µM [activator, single point]
C/C(=N/Nc1nc(C)c(C)s1)c1cccc([N+](=O)[O-])c1 14.1 µM [activator, single point]
O=C(Nc1nc(-c2ccc(Cl)s2)cs1)c1ccco1 22.4 µM [activator, single point]
O=C1CCCc2cc3c(ccc4ccccc43)cc21 10 µM [activator, partial curve]
COc1ccc(C(=O)CCN2CCC(C)CC2)cc1 35.5 µM [activator, single point]
Fc1cccc2sc(Nc3nc4ccccc4s3)nc12 1.78 µM [activator, full curve, poor fit]
CCc1[nH]nc2c1C(C1C=CCCC1)C(C#N)=C(N)O2 (stereo unspecified) 31.6 µM [activator, single point]
CN(C(=O)CCCN1C(=O)c2cccc3cccc(c23)C1=O)c1ccccc1 17.8 µM [activator, partial curve, poor fit]
Cc1ccc(N=C2NC(=O)S/C2=C\c2ccco2)cc1 3.55 µM [activator, partial curve, poor fit]
Cc1cc(C)n(-c2nc3ccccc3c(=O)n2OCC(=O)OCc2ccccc2)n1 31.6 µM [activator, single point]
O=C(CC1(O)C(=O)Nc2cc(Cl)cc(Cl)c21)c1ccncc1 (stereo unspecified) 15.8 µM [activator, single point]
CCOC1(OCC)C(c2ccc(Cl)cc2)C(C#N)(C#N)C1(OCC)OCC (stereo unspecified) 25.1 µM [activator, single point]
COc1cc(/C=C/C=C2/CC/C(=C/C=C/c3ccc(O)c(OC)c3)C2=O)ccc1O 22.4 µM [activator, single point]

activation, inactive:
COc1ccc(-n2c(C)cc(/C=C3\C(=O)NN(c4ccccc4)C3=O)c2C)cc1 -1.52%
COc1ccc(/C=N/Nc2cc(C)nc3c(C)cccc23)cc1 -2.82%
CC(=O)N1N=C(c2ccc(Br)cc2)CC1c1ccc(Br)cc1 (stereo unspecified) 3.83%
COCCOC(=O)c1[nH]c2c(c1C)C(=O)CC(c1cc(OC)c(OC)c(OC)c1)C2 (stereo unspecified) 2.81%
CCCCOc1ccccc1NC(=O)Cn1c(-c2nonc2N)nc2ccccc21 -0.613%
CCCCOC(=O)c1ccc(NC(=O)/C(C#N)=C/c2ccc(-c3ccccc3)o2)cc1 1.1%
O=C(NCc1ccc(F)cc1)c1cc2c(s1)-c1ccccc1SC2 -1.3%
Nc1c(C(=O)Nc2ccc(Cl)cc2F)sc2nc(-c3cccs3)ccc12 4.65%
Cc1ccc(C)c(NC(=O)Cn2c(=O)n(Cc3cccs3)c(=O)c3cccnc32)c1 0.157%
Cc1ccc(NC(=O)C2CCN(S(=O)(=O)c3ccc(N4CCCC4=O)cc3)CC2)cc1Cl 0.0607%

— PubChem BioAssay AID624171 (National Center for Advancing Translational Sciences (NCATS), 2012)
